The shares of active, inactive and inconclusive entries below differ from those in the screen. For some of these results: Potencies of inconclusive entries are doubtful fits and often do not repeat. Activity calls are given as the source filed them. Unless noted, calls follow the shape of the dose curve; as a rule, active = well fitted curve in the direction sought with a large enough effect; inconclusive = small, poorly fitted or top-dose-only effect, or another doubt; inactive = no such curve, though single readings can be large; an effect the other way counts as inactive or inconclusive.
Legend:
[1] = biological target: Vitamin D3 receptor (Homo sapiens) (UniProt P11473); assay: qHTS for Inhibitors of the vitamin D receptor (VDR): Hit Validation using a Beta-Lactamase Assay (AID 602202); conditions: VDR beta-lactamase reporter cells, FRET ratio; cells co-treated with VDR agonist LG190178; also: potency is read from the fitted curve at half-maximal effect
Description: The vitamin D receptor (VDR) is a ligand-activated transcription factor and is partially responsible for the regulation of the endocrine system. This includes the transcriptional regulation of genes involved in the production of the parathyroid hormone (PTH) and the regulation of the blood calcium level. High levels of PHT can cause hypercalcemia in the case of primary and tertiary hyperparathyroidism. The VDR-mediated gene regulation, activated by its ligand 1,25-dihydroxyvitamin D3 (1,25-(OH)2D3), is governed by the recruitment of coactivators. Our hypothesis is that small molecules, with the ability to inhibit the interaction between VDR and certain coactivators, are able to selectively modulate VDR-mediated transcription. […]
In a collaboration between the University of Wisconsin, Milwaukee and the NIH Chemical Genomics Center (NCGC) a HTS-compatible enzymatic assay was developed. The assay uses fluorescence polarization as its read-out to measure the inhibition between VDR and coregulator peptide SRC2-3 exerted by small molecules. […] Successful activation is detected by a decrease in time-resolved fluorescence resonance energy transfer (TR-FRET) caused by enzymatic cleavage of fluorescent betalactam substrate added after 24h incubation. The cleaved substrate concentration was quantified by measuring the fluorescence emission at 447 nm. […]

[2] = qHTS of Nrf2 Activators: LOPAC Validation (AID 624149); conditions: Nrf2/ARE reporter cell assay; series mostly up to 46.1 µM; also: potency is read from the fitted curve at half-maximal effect
Procedure, shortened: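 ARE reporter activation measured in AREc32 firefly luciferase cells after 24 hr compound exposure; Steady-Glo luminescence.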

[3] = qHTS for Inhibitors of the vitamin D receptor (VDR): Hit Validation using a Cytotoxicity Assay (AID 602204); conditions: cytotoxicity counter-screen, cell viability;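 also: cells co-treated with VDR agonist LG190178 at 300 nM; potency is read from the fitted curve at half-maximal effect; nearly all actives have a fitted effect of over 75% in size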
Procedure, shortened: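 Compounds stayed on cells (20,000/well, plated 4 hours earlier) for 18 hours. Viability then taken as ATP content by CellTiter-Glo, read as luminescence after 30 minutes. Controls: high-concentration cycloheximide (positive), DMSO (negative).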

[4] = qHTS Assay for the Inhibitors of L3MBTL1: Hit Validationin AlphaScreen Counterscreen (AID 602224); conditions: signal inhibition; also: potency is read from the fitted curve at half-maximal effect
Procedure, shortened: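 Artifact counterscreen: b-His6 1 nM, streptavidin donor + Ni-chelate acceptor beads 10 ug/mL each, cpd pin-transferred, 15 min RT, then beads 30 min RT dark, AlphaScreen read.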

[5] = biological target: Luciferin 4-monooxygenase (Photinus pyralis) (UniProt P08659); assay: Biochemical firefly luciferase enzyme assay for NPC (AID 624030); also: potency is read from the fitted curve at half-maximal effect; nearly all actives have a fitted effect of over 70% in size; conditions: purified P. pyralis luciferase, luminescence, 5 min; series mostly up to 58.6 µM
Procedure, shortened: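 Counter-screen for direct inhibition of the luciferase enzyme by approved-drug library compounds, run at 10 nM enzyme in 50 mM Tris acetate (final). Luminescence was read within 5 min of enzyme-buffer addition and normalized to PTC124 versus DMSO (0%).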

[6] = S16 Schwann cell PMP22 intronic element firefly luciferase assay (AID 624032); conditions: S16 rat Schwann cells, PMP22 element FLuc, 24 h; series mostly up to 57.5 µM; also: potency is read from the fitted curve at half-maximal effect; nearly all actives have a fitted effect of over 30% in size
Procedure, shortened: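 Rat S16 Schwann cells stably carrying a PMP22 intronic element-driven Fluc reporter were seeded overnight, then exposed to compounds for 24 h at 37 °C. Luminescence was normalized to PTC124 (positive control) and DMSO (0% activity).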

[7] = qHTS assay for small molecule agonists of the antioxidant response element (ARE) signaling pathway (AID 651741; active = well fitted activation curve with a large enough effect in the signal ratio; inconclusive = small, poorly fitted or top-dose-only effect, or effect the other way, or a change in a side signal; the % refers to the signal ratio; also: potency is read from the fitted curve at half-maximal effect; as to activation: % of control where 0% means no effect); conditions: HepG2 ARE-bla reporter, beta-lactamase FRET ratio, 16 h; activation: at 96 µM (top of the series)
Procedure, shortened: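 ARE-bla HepG2 cells (beta-lactamase reporter under ARE control) were plated at 2,000 cells/well, preincubated 5 h at 37 C/5% CO2, then treated with DMSO-dissolved compounds for 16 h at 37 C; LiveBLAzer B/G FRET substrate added, fluorescence read after 2 h at room temperature.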

[8] = S16 Schwann cell PMP22 intronic element beta-lactamase assay (AID 624044; calls by dose curve; also: potency is read from the fitted curve at half-maximal effect; nearly all actives have a fitted effect of over 15% in size); conditions: S16 rat Schwann cells, PMP22 element beta-lactamase FRET, 24 h; ratio activity, negative = inhibition: at 38.3 µM (top of the series)
Procedure, shortened: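 Rat S16 Schwann cells with beta-Lac driven by a PMP22 intronic element, compound-treated 24 h at 37 °C. LiveBLAzer FRET B/G read: 460 nm normalized to potassium clavulanate vs DMSO; 535 nm FRET as viability; concentration-effect curves classified.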

[9] = Cell Proliferation Assay against the TMD8 Cell Line (Caspase readout at 16 hrs) (AID 651712); conditions: TMD8 lymphoma cells, caspase activation luminescence; series mostly up to 46.1 µM
Procedure, shortened: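 TMD8 cells (500/well) in phenol-red-free RPMI with glutamine, 5% FBS, were exposed to compounds for 16 h at 37 °C. Caspase 3/7 activation was read by Caspase-Glo luminescence; percent activity normalised to DMSO (0%) and 9.2 uM bortezomib final (100%).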
Tags tell the direction and shape of the fitted curve.

Chain of UniProt P08659 (P08659 whole entry, looked up): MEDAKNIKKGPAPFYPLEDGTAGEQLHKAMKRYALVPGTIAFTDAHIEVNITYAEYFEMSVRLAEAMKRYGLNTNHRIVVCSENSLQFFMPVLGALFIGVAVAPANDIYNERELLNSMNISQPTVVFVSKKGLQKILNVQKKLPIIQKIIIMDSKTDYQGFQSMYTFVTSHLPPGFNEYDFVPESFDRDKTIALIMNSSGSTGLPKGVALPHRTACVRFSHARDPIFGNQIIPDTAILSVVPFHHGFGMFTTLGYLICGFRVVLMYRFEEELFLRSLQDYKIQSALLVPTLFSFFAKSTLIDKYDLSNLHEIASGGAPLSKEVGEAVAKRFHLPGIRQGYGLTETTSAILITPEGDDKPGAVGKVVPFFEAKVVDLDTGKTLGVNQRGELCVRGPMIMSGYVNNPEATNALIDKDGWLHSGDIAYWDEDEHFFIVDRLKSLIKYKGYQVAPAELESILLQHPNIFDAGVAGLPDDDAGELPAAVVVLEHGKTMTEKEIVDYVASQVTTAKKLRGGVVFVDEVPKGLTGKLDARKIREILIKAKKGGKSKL
Chain of UniProt P11473 (P11473 whole entry, looked up): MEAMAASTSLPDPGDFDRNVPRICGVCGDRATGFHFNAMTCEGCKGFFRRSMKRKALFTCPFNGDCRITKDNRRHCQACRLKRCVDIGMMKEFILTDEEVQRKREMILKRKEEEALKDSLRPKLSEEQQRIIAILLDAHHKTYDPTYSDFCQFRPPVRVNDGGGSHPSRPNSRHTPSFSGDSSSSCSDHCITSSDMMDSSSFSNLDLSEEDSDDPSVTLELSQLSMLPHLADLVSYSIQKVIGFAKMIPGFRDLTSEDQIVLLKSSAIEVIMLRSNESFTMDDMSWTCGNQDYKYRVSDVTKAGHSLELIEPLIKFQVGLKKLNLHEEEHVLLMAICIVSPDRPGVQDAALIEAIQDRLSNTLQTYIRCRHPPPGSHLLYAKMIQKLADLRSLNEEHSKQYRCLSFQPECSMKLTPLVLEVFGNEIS

CC1(C)CCC2=C(O1)c1ccccc1C(=O)C2=O
Potency [1]: inconclusive: 20.6 µM [inhibitor, single point]

O=[N+]([O-])c1ccc2c(c1)S(=O)(=O)C=C2
Potency [1]: active: 3.66 µM | Potency [2]: inconclusive: 2.91 µM [activator, partial curve, poor fit]

CCCCC1C(=O)N(c2ccccc2)N(c2ccc(O)cc2)C1=O (stereo unspecified)
Potency [3]: active: 21.2 µM

N#C/C(=C\c1ccc(O)c(O)c1)C(=O)c1ccc(O)c(O)c1
Potency [4]: inconclusive: 10.6 µM [inhibitor, partial curve]

C=C(c1ccc(C(=O)O)cc1)c1cc2c(cc1C)C(C)(C)CCC2(C)C
Potency [5]: inconclusive: 32.2 µM [inhibitor, partial curve] | Potency [6]: inconclusive: 16.1 µM [inhibitor, partial curve, poor fit]

C#C[C@]1(O)CC[C@H]2[C@@H]3CCc4cc(O)ccc4[C@H]3CC[C@@]21C
Potency [5]: inconclusive: 25.6 µM [inhibitor, partial curve, poor fit] | Potency [7]: inconclusive: 53.1 µM [activator, single point] | activation [7]: inconclusive: 3.46%

Oc1ccc(OCc2ccccc2)cc1
Potency [5]: inconclusive: 13.8 µM [inhibitor, partial curve] | Potency [8]: active: 6.73 µM

Nc1nc2ccc([N+](=O)[O-])cc2s1
Potency [5]: inconclusive: 41.7 µM [inhibitor, partial curve, poor fit] | Potency [7]: active: 66.8 µM

Nc1nc2ccc(OC(F)(F)F)cc2s1
Potency [5]: inconclusive: 16.1 µM [inhibitor, partial curve] | Potency [9]: inactive

Source: PubChem BioAssay (NCATS)
